“And” between values parts separate entries of the source, which are not always exact repeats. Equal entries are not always repeated. This continues a long series; more values of the same kind are listed elsewhere.
C1CCCCC1
Conditions	viscosity
298.1 K, 101 kPa	0.841 mPa·s and 0.841 mPa·s
298.15 K, 101 kPa	0.8856 mPa·s and 0.889 mPa·s
303.15 K, 101 kPa	0.819 mPa·s
308 K, 101 kPa	0.7836 mPa·s
308.15 K, 101 kPa	0.7607 mPa·s and 0.7367 mPa·s and 0.7503 mPa·s
313.15 K, 101 kPa	0.7148 mPa·s
318.15 K, 101.33 kPa	0.6536 mPa·s
323.15 K, 100 kPa	0.6089 mPa·s
323.15 K, 101.33 kPa	0.6045 mPa·s
